# Experimental data as given in PubChem BioAssay AID651687 (Broad Institute, 2012).
# The whole screen tested about 350,000 compounds, of which about 600 (0.17%) were called active. The shares of active, inactive and inconclusive entries below differ from those in the screen.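 Rule for the calls: active = every replicate shows inhibition of at least 40%; inconclusive = mean inhibition at least 40% but some replicate below; inactive = the rest.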
# Experiment: inhibitors of PGC1a acetylation signal, primary screen, cell-based, U2OS, AlphaScreen, inhibitor mode (AID 651687);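 note: 0% = neutral control wells and 100% = positive control wells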
# Details: AlphaScreen anti-acetyl-lysine, at 15.6 µM, stronger effect = higher value, with virally co-expressed GCN5 acetyltransferase
row,Structure (SMILES),inhibition
1,C[C@@H]1CN([C@H](C)CO)C(=O)c2cc(NC(=O)Cc3cn(C)c4ccccc34)ccc2O[C@@H]1CN(C)C(=O)Nc1ccccc1,active: 108%
2,CCN(CC)C(=O)c1ccc(O)c(OC)c1,inconclusive: 55.9%
3,COc1ccccc1C#Cc1ccc([C@H]2[C@H](C#N)N(C(=O)C3CCCC3)[C@H]2CO)cc1,active: 64.9%
4,O=C(COc1nc2ccccc2nc1N1CCOCC1)NC1CCCCC1,inactive: 1.01%
5,COc1cc(/C=C/c2cccc[n+]2C)ccc1OCC(=O)Nc1ccccc1,inconclusive: 42.4%
6,Cc1ccc(C)c(OCC(=O)Nc2c(C)n(C)n(-c3ccccc3)c2=O)c1,inactive: 3.18%
7,COc1ccccc1C(=O)Oc1cc(N)n(S(=O)(=O)c2ccc(C)cc2)n1,inconclusive: 42.5%
8,Cc1nc(N2CCN(c3ccccc3)CC2)nc2c1C(=O)CC(c1ccccc1)C2 (centres undefined),inactive: -2.39%
9,Brc1ccc(N/N=C(/N=Nc2nn[nH]n2)c2ccccc2)cc1,active: 97%
10,C=CCn1cccc(/C=C/C(=O)c2ccc(C(C)(C)C)cc2)c1=S,active: 52.6%
11,COCC(=O)OCC(=O)Nc1cc(C(C)(C)C)nn1-c1ccccc1,inconclusive: 47.2%
12,CCCC(=O)NNc1c2ccccc2nc2ccccc12,inactive: -9.64%
13,CSc1nc2nccc(/C=C\c3ccccc3)n2n1,active: 49.5%
14,C[C@H]1CN([C@@H](C)CO)C(=O)c2cccc(NC(=O)c3ccc(-c4nccs4)cc3)c2O[C@@H]1CN(C)C(=O)Nc1ccccc1,inactive: -4.29%
15,NCCCCCC(=O)O,inconclusive: 51.2%
16,COc1ccc2cc3c(N)nn(C(=O)c4ccccc4Cl)c3nc2c1,inconclusive: 41.7%
17,COc1ccc(-c2[nH]ncc2-c2ccc3c(c2)OCCO3)c(O)c1,active: 53.1%
18,COc1ccc2c3c(n(C)c2c1)[C@@H](CO)N(Cc1ccccc1)CC31CCN(S(=O)(=O)c2ccc(C)cc2)CC1,inactive: -19%
19,CC(=O)c1ccc(NC(=O)CSCC(=O)Nc2ccc3ccccc3c2)cc1,inconclusive: 55.7%
20,Nc1ccc2c(c1)C(=O)C(=O)c1ccccc1-2,active: 107%
21,CNC[C@H]1Oc2ccc(NC(=O)CCN3CCOCC3)cc2C(=O)N([C@H](C)CO)C[C@H]1C,inconclusive: 42.2%
22,COCCNC(=O)c1ccc(C)cc1C,inconclusive: 44.3%
23,Cc1ccc(S(=O)(=O)N/N=C/c2c[nH]c3ccccc23)cc1,active: 105%
24,C[C@H](CO)N1C[C@H](C)[C@@H](CN(C)S(=O)(=O)c2ccc(Cl)cc2)Oc2c(NS(=O)(=O)c3ccc(F)cc3)cccc2C1=O,inactive: -5.94%
